# “And” between values parts separate entries of the source, which are not always exact repeats. Equal entries are not always repeated. Inconclusive results, whose numbers are uncertain, are shown with a selection of clear calls. For some assays here: Where the call is inconclusive, the potency comes from a doubtful curve fit. Where a structure was tested more than once in an assay, its records may differ in their call. The source made the active and inactive calls. Unless noted, calls follow the shape of the dose curve; as a rule, active = well fitted curve in the direction sought with a large enough effect in the repeat runs; inconclusive = weak or mixed curves; inactive = no such curve, though single readings can be large; an effect the other way counts as inactive or inconclusive.
# Key:
# [1] = A CellTox Green Cytotoxicity Assay to monitor cytotoxicity in HepG2 cells - 32 hour (AID 1224883); also: nearly all actives have a fitted effect of over 50% in size; also: potency is read from the fitted curve at half-maximal effect
# Summary of the method: (§1)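 Measurements at 0, 8, 16, 24, 32 and 40 h of treatment captured CellTox Green fluorescence in HepG2 cells that had been co-plated with reagent and preincubated 5 h at 37 C/5% CO2.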
# [2] = qHTS assay to identify small molecule phospholipidosis (PLD) inducers (AID 1259344; active = well fitted curve in the direction sought with a large enough effect; inconclusive = small, poorly fitted or top-dose-only effect, or another doubt; inactive = no such curve, though single readings can be large; an effect the other way counts as inactive or inconclusive; also: potency is read from the fitted curve at half-maximal effect)
# Summary of the method: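 After 4 h attachment on collagen I, HepG2 cells were dosed with compound alongside LipidTOX Red, kept 24 h at 37 C, fixed, and imaged for lamellar phospholipid pits.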
# [3] = qHTS assay to identify small molecule antagonists of the sonic hedgehog signaling (Shh) pathway (AID 1259369; calls by dose curve; also: nearly all actives have a fitted effect of over 45% in size; also: potency is read from the fitted curve at half-maximal effect; as to activity change, negative = inhibition: % is scaled to controls: 0 for no effect and ±100 for the full control effect)
# Summary of the method: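 NIH/3T3 stable Gli1-Luc clone, 2,000 cells/well, 4hr settle; cpd + conditioned medium 24hr; Luc reagent 30min RT; luminescence.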
# [4] = molecular target: Estrogen receptor beta (Homo sapiens) (UniProt Q92731); assay: qHTS assay to identify small molecule agonists of the estrogen receptor beta (ER-beta) signaling pathway (AID 1259377; active = well fitted activation curve with a large enough effect in the signal ratio in the repeat runs, not every such curve was filed as active; inconclusive = weak or mixed curves, or effect the other way; the % refers to the signal ratio; also: potency is read from the fitted curve at half-maximal effect; as to activation: % is scaled to controls: 0 for no effect and ±100 for the full control effect); settings: ER-beta-UAS-bla HEK293T, beta-lactamase FRET ratio, 16 h; activation: at 92.4 µM (top of the series) unless noted
# UniProt Q92731, sequence (Q92731 whole entry, looked up): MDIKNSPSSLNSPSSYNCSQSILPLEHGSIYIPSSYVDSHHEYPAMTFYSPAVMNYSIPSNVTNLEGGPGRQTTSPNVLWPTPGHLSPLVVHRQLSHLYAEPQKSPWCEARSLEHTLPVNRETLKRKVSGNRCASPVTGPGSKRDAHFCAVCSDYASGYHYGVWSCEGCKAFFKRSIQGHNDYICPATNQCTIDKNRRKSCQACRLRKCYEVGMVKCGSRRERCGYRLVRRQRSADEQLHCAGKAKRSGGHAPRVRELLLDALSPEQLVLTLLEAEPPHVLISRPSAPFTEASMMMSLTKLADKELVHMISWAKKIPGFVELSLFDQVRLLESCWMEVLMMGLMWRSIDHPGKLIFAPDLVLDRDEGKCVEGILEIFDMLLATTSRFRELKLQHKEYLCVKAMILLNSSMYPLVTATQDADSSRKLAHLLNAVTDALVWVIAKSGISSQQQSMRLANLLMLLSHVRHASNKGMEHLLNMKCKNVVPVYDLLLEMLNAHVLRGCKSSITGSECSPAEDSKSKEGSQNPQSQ
# Summary of the method: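 Ratiometric beta-lactamase FRET read-out came after 2 h substrate loading at room temperature. It followed 16 h compound treatment at 37C of GripTite HEK293T cells carrying a UAS-bla reporter, plated in 2% charcoal-stripped FBS medium.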
# [5] = qHTS assay to identify small molecule antagonists of the sonic hedgehog signaling (Shh) pathway - cell viability counter screen (AID 1259367); also: % is scaled to controls: 0 for no effect and ±100 for the full control effect; nearly all actives have a fitted effect of over 55% in size
# Summary of the method: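 Conditioned medium drove Shh signaling in 3T3 Gli1-Luc cells exposed to compounds at 37C and 5% CO2. Viability was determined from CellTiter-Fluor fluorescence, with reagent incubated 1 hr after 23 hr of treatment.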
# [6] = molecular target: Androgen receptor (Homo sapiens) (UniProt P10275); assay: qHTS assay to identify small molecule antagonists of the androgen receptor (AR) signaling pathway using the MDA cell line in the presence of 0.5 nM R1881 (AID 1259243); also: potency is read from the fitted curve at half-maximal effect; nearly all actives have a fitted effect of over 50% in size
# UniProt P10275, sequence (P10275 whole entry, looked up): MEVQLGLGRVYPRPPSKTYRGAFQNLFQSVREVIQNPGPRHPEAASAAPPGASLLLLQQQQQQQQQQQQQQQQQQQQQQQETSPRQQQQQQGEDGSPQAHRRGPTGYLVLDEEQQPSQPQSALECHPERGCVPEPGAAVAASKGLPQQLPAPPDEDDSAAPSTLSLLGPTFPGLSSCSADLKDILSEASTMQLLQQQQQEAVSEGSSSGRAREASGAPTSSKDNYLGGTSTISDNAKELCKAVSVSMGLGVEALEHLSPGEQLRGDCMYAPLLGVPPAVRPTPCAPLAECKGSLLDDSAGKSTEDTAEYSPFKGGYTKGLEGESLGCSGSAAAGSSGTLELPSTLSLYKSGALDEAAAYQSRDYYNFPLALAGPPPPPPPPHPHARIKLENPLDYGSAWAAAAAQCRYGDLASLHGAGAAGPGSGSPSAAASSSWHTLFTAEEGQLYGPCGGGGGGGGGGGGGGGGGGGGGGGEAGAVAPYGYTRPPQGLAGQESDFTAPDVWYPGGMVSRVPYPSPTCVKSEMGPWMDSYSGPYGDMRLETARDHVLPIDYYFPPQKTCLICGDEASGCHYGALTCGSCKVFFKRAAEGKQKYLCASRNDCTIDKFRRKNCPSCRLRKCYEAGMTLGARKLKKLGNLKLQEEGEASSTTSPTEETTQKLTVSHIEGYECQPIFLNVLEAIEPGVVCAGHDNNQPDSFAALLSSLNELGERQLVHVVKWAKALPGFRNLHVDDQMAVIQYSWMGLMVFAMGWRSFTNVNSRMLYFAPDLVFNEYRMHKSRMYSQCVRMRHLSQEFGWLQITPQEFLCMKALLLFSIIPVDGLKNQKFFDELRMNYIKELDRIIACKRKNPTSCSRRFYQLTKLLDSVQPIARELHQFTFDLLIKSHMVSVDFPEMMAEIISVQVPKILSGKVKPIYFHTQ
# Summary of the method: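 With R1881 held at 0.5 nM (final), compound effects on MMTV-luciferase expression in MDA-kb2 cells were scored by luminescence after a 16 hr, 37C incubation.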
# [7] = qHTS assay to identify small molecule agonists of the sonic hedgehog signaling (Shh) pathway - cell viability counter screen (AID 1259366); also: nearly all actives have a fitted effect of over 50% in size; also: potency is read from the fitted curve at half-maximal effect
# Summary of the method: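 Cytotoxicity counter screen: CellTiter-Fluor reagent added after 23 h compound exposure, then 1 h at 37C and fluorescence read. Cells were 3T3 Gli1-Luc, seeded 2,000 per well and dosed 4 h post-plating.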
# [8] = qHTS assay to identify small molecule antagonists of the estrogen receptor alpha (ER-alpha) signaling pathway using the BG1 cell line in the presence of 0.1 nM 17-beta-estradiol - cell viability counter screen (AID 1259241); also: potency is read from the fitted curve at half-maximal effect; nearly all actives have a fitted effect of over 40% in size
# Summary of the method: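 Cytotoxicity counter-screen: live-cell protease activity measured by fluorescence (30 min reagent step) in the same wells. Cells were VM7Luc4E2 with endogenous ER-alpha and ERE-driven luciferase, treated 22 hr at 37C alongside 0.1 nM 17beta-estradiol final.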
# [9] = A CellTox Green Cytotoxicity Assay to monitor cytotoxicity in HEK293 cells - 8 hour (AID 1224884); also: nearly all actives have a fitted effect of over 35% in size; also: potency is read from the fitted curve at half-maximal effect
# Summary of the method: (§2)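 Tox21 screen in HEK293: membrane-impermeant cyanine dye fluoresces on binding dead-cell DNA; compound pinned 5 h post-seeding, plates held at 37 C, signal read repeatedly through 40 h.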
# [10] = qHTS RealTime-Glo MT Cell Viability Assay in HEK293 cells - 8 hour (AID 1224887); also: nearly all actives have a fitted effect of over 50% in size; also: potency is read from the fitted curve at half-maximal effect; as to activity change, negative = cytotoxicity: top concentration of the series differs between compounds; % is scaled to controls: 0 for no effect and ±100 for the full control effect
# Summary of the method: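 HEK293 + NanoLuc + prosubstrate, 600 cells/well; 5 h, 37 C/5% CO2; compound 23 nL in DMSO by pintool; 37 C; luminescence read at 0, 8, 16, 24, 32 and 40 h time points.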
# [11] = A CellTox Green Cytotoxicity Assay to monitor cytotoxicity in HEK293 cells - 16 hour (AID 1224888); also: potency is read from the fitted curve at half-maximal effect; nearly all actives have a fitted effect of over 35% in size
# Summary of the method: as §2
# [12] = qHTS assay to identify small molecule antagonists of the androgen receptor (AR) signaling pathway using the MDA cell line in the presence of 0.5 nM R1881 - cell viability counter screen (AID 1259242); also: potency is read from the fitted curve at half-maximal effect; nearly all actives have a fitted effect of over 45% in size
# Summary of the method: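 Concentration-response screen of compounds for toxicity in MDA-kb2 reporter cells: 16 hr at 37C with 0.5 nM R1881, endpoint live-cell protease fluorescence measured in the reporter wells.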
# [13] = qHTS assay to identify small molecule HDAC inhibitors - cell viability counter screen (AID 1259365)
# Summary of the method: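 CellTiter-Glo luminescence (30 min, room temperature) reported viability after a 2 h compound exposure at 37 C. Cells: wild-type HCT-116, 1,500 per well, seeded the night before.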
# [14] = A CellTox Green Cytotoxicity Assay to monitor cytotoxicity in HepG2 cells - 8 hour (AID 1224890); also: potency is read from the fitted curve at half-maximal effect; nearly all actives have a fitted effect of over 45% in size
# Summary of the method: as §1
# Tags tell the direction and shape of the fitted curve or compound fluorescence and quenching.
smiles,measurement,setting,value
CN(CCCN1c2ccccc2CCc2ccccc21)CC(=O)c1ccc(Cl)cc1,Potency,[1],"inconclusive: 19 µM [activator, partial curve]"
same,Potency,[2],"inconclusive: 22.4 µM [activator, single point]"
same,Potency,[3],active: 26.6 µM
CCC(C)C=O (stereo not drawn),Potency,[1],"inconclusive: 21.9 µM [activator, partial curve, poor fit]"
same,Potency,[4],active: 4.32 µM
Cc1ccc(C(=O)O)cc1,Potency,[1],"inconclusive: 56.2 µM [activator, single point]"
same,Potency,[3],inactive
C=CCCCCCCCCO,Potency,[1],"inconclusive: 87.1 µM [activator, partial curve, poor fit]"
same,Potency,[3],inactive
CCOC(=O)C(C)O (stereo not drawn),Potency,[1],inactive
same,Potency,[5],inactive
CN(C)CC/C=C1\c2ccccc2COc2ccccc21,Potency,[1],"inconclusive: 26.8 µM [activator, single point]"
same,Potency,[6],"inconclusive: 23.7 µM [inhibitor, partial curve]"
same,Potency,[7],"inconclusive: 23.7 µM [cytotoxic, partial curve]"
same,Potency,[3],"inconclusive: 3.76 µM [inhibitor, full curve, poor fit]"
c1ccc2c(c1)ccc1ncccc12,Potency,[1],"inconclusive: 61.7 µM [activator, single point]"
same,Potency,[6],active: 3.83 µM and active: 5.45 µM
same,Potency,[3],"inconclusive: 68.1 µM [inhibitor, single point]"
same,Potency,[4],inactive
COCC(C)N (stereo not drawn),Potency,[1],"inconclusive: 21.9 µM [activator, single point]"
same,Potency,[7],inactive
same,activation,[4],inconclusive: 9.53%
CC[C@H]1OC(=O)[C@H](C)[C@@H](O[C@H]2C[C@@](C)(OC)[C@@H](O)[C@H](C)O2)[C@H](C)[C@@H](O[C@@H]2O[C@H](C)C[C@H](N(C)C)[C@H]2O)[C@](C)(O)C[C@@H](C)/C(=N\OCOCCOC)[C@H](C)[C@@H](O)[C@]1(C)O,Potency,[1],inactive
same,Potency,[8],active: 10.2 µM
same,Potency,[2],"inconclusive: 28.2 µM [activator, single point]"
same,Potency,[3],active: 12.8 µM
CC1(C)[C@@H](O)CC[C@]2(C)[C@H]3C(=O)C=C4[C@@H]5C[C@@](C)(C(=O)O)CC[C@]5(C)CC[C@@]4(C)[C@]3(C)CC[C@@H]12,Potency,[1],"inconclusive: 61 µM [activator, partial curve, poor fit]"
same,Potency,[7],"inconclusive: 60.4 µM [cytotoxic, partial curve]"
C=C(C)[C@H]1CC=C(C)C(=O)C1,Potency,[1],"inconclusive: 0.347 µM [activator, partial curve]"
same,Potency,[3],"inconclusive: 2.48 µM [inhibitor, single point]"
CCC(CN)=C(c1ccccc1)c1ccccc1,Potency,[1],"inconclusive: 23.9 µM [activator, single point]"
same,Potency,[6],"inconclusive: 33.5 µM [inhibitor, single point]"
same,Potency,[3],"inconclusive: 13.3 µM [inhibitor, full curve]"
CC1C(C)(C)C2=C(C(=O)CCC2)C1(C)C (stereo not drawn),Potency,[1],"inconclusive: 49 µM [activator, partial curve, poor fit]"
same,Potency,[3],"inconclusive: 2.73 µM [inhibitor, single point]"
O=C(O)CCC(=O)c1ccc(-c2ccccc2)cc1,Potency,[9],inactive
O=CO,Potency,[9],"inconclusive: 0.358 µM [activator, single point]"
same,"activity change, negative = cytotoxicity",[10],inactive: 8.18% [at 6.97 µM]
same,Potency,[11],"inconclusive: 0.358 µM [activator, partial curve, poor fit]"
same,"activity change, negative = inhibition",[3],inactive: 8.06% [at 8.39 µM]
C[N+]1(C)CCC(=C(c2ccccc2)c2ccccc2)CC1,Potency,[9],inactive
CCN(CC)c1ccc2c(c1)Oc1cc(N(CC)CC)ccc1C21OC(=O)c2ccccc21,Potency,[9],active: 23.9 µM
same,Potency,[11],active: 21.3 µM
same,Potency,[8],active: 5.96 µM
same,Potency,[12],active: 10.6 µM
same,Potency,[6],"inconclusive: 23.7 µM [inhibitor, partial curve]"
same,Potency,[13],"inconclusive: 10.6 µM [cytotoxic, partial curve]"
same,Potency,[3],"inconclusive: 13.3 µM [inhibitor, full curve]"
C/C=C(\C)C(=O)OCCC(C)CCC=C(C)C (stereo not drawn),Potency,[9],inactive
COc1cc([C@H]2Oc3cc([C@H]4Oc5cc(O)cc(O)c5C(=O)[C@@H]4O)ccc3O[C@@H]2CO)ccc1O,Potency,[9],active: 16.9 µM
same,Potency,[10],"inconclusive: 34.6 µM [cytotoxic, partial curve]"
same,Potency,[14],active: 23.9 µM
same,Potency,[3],inconclusive: 33.5 µM [inhibitor]

# — PubChem BioAssay (Tox21)
